The values below come from PMC6919601, “Identification of Plasmodium dipeptidyl aminopeptidase allosteric inhibitors by high throughput screening” (PLoS ONE, 2019).

Hit rate of the full screen: of about 110,000 compounds, about 230 (0.21%) showed an effect of 50% or more. This is one part of the list.
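Note: 30 min substrate incubation versus DMSO and 10 µM JCP410 controls.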

For this assay, the target named is DPAP1 (Plasmodium falciparum, UniProt Q8IIJ9). Description: primary screen, percent inhibition; read by cleavage of a fluorogenic dipeptide substrate; higher = more effect of the substance. On the set-up: species or system P. falciparum D10 trophozoite lysates; single well.
DPAP1, sequence (Q8IIJ9 whole entry, looked up): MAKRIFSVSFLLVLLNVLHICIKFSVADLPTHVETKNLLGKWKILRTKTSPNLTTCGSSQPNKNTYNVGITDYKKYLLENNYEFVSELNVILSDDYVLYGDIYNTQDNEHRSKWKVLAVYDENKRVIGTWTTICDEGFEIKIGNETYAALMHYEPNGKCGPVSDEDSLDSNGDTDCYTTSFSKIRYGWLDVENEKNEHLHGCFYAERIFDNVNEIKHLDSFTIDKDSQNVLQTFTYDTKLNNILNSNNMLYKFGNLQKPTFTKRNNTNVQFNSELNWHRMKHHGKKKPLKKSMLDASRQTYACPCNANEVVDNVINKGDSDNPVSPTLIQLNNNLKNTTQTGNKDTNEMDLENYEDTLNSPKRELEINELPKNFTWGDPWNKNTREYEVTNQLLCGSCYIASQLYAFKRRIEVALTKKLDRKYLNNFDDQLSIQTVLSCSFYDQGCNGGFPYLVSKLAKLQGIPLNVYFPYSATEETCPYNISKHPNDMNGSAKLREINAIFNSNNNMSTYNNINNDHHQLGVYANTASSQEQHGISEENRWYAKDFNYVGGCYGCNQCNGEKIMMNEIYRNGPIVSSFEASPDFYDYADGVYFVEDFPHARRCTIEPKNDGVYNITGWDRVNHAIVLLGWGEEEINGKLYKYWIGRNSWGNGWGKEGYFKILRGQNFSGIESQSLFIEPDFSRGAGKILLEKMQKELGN
Consider `COc1ccc(NS(=O)(=O)c2ccc(NC(=O)Nc3ccc(Cl)cc3)cc2)cc1`, for which the “% Inhibition @ 10 uM” value is on record as 4.83%. On to `CC(c1ccccc1)N1CCC(O)CC1` (centres unmarked), for which the “% Inhibition @ 10 uM” value was 7.24%.

In the case of `Cc1[nH]c2ccccc2c1C(=O)CCC(=O)O`, the “% Inhibition @ 10 uM” value is listed as -1.59%. As for `Cc1nnc2sc(-c3ccc4c(c3)OCO4)nn12`, the figure is -1.07%; as for `CC(=O)Nc1ccc(S(=O)(=O)Nc2cccc(-c3cn4cccnc4n3)c2)cc1`, -3.45%; as for `N=C1/C(=C\c2cccn2CCOc2ccc(Cl)cc2)C(=O)N=C2SC(N3CCCC3)=NN12`, 1.72%. As for `CCC(Sc1nncn2c1cc1occc12)C(=O)NCc1ccco1` (centres unmarked), the figure is 0.616%; as for `COc1ccccc1C1CC2=NC(C)=C(C(=O)OC(C)C)C(c3coc4ccccc4c3=O)C2=C(O)C1` (centres unmarked), -1.17%; as for `CCN(CC)S(=O)(=O)c1cc(-c2nnc(-c3ccc(Br)cc3)o2)ccc1Cl`, 20.3%. For `Cc1ccc2[nH]c3c(c2c1)CCOc1ccccc1-3`, the “% Inhibition @ 10 uM” value is -4.3%. For `CN(C)c1ccc2c(c1)OC(N)=C(C#N)C2c1cccs1` (centres unmarked) the value was -3.85%. For `Cc1ccc(-c2nc(N)n(S(=O)(=O)c3ccc(C)cc3)n2)cc1` the value was -1.11%; for `CC(C)CN(CC(C)C)C(=O)c1cc(S(=O)(=O)N2CCCCC2)c[nH]1`, 2.27%; for `COc1ccc(Cn2c(C(=O)O)c(CNCCc3cccs3)c3ccccc32)cc1`, 5.94%.

Turning to `N#CC1=C(N)Oc2nc(SCc3ccccc3)nc(O)c2C1c1ccccc1` (centres unmarked), the “% Inhibition @ 10 uM” value is -2.54%. As for `CC(NC(=O)C1CCN(c2ncnc3c2sc2cccc(F)c23)CC1)c1ccccc1` (centres unmarked), the figure is 5.73%; as for `O=C(Nc1ccc(Cl)c(C(F)(F)F)c1)c1ccc([N+](=O)[O-])cc1Cl`, 7.2%.

As to `c1ccc(NC2=Nc3ccccc3CCC2)cc1`, the “% Inhibition @ 10 uM” value was found to be 2.86%. For `CCN(CC)CCN(C)C1CCN(CCc2ccccc2)CC1`, the “% Inhibition @ 10 uM” value is recorded as -5.11%. For `COc1cccc(OC)c1C(=O)N1CCNCC1` the value was -2.97%. For `CC(=O)Nc1ccc(NC(=O)CN2CCN(CC(=O)Nc3ccc(NC(C)=O)cc3)CC2)cc1` the value was -3.04%; for `Brc1ccc(-c2csc3ncnc(N4CCOCC4)c23)cc1`, -5.31%. For `Cc1nn(CC(=O)NC(C)c2ccccc2)c(=O)c2cccn12` (centres unmarked) the value was 1.76%; for `Nc1ccc(C(=O)Nc2cccc(-c3nc4ccccc4o3)c2)cc1`, -16.1%; for `CC(C)CC(C(=O)NCC#N)c1cncc(-c2ccc(N3CCN(C=O)CC3)cc2)c1` (centres unmarked), -6.46%. `COc1cc(/C=N/n2cnnc2)cc(OC)c1OC`: the “% Inhibition @ 10 uM” value is 1.39%. As for `CC1CCCCN1c1ncnc2c1oc1ccccc12` (centres unmarked), the figure is 3.32%; as for `Cc1cc(C)n(-c2ccc3nn(-c4ccccc4)nc3c2)n1`, 4.65%. As for `Oc1ccc(CN2CCC(O)CC2)cc1`, the figure is 2.23%; as for `CN(Cc1ccccc1)S(=O)(=O)c1ccc([N+](=O)[O-])cc1`, 5.69%; as for `Cc1occc1C(=O)Nc1nc2ccc(Cl)cc2s1`, 5.42%. `CC1(C)CC(OC(=O)c2ccccc2)CC(C)(C)N1OC(=O)c1ccco1`: the “% Inhibition @ 10 uM” value is -3.04%. On to `CCN(CC)S(=O)(=O)c1ccc(NC(=O)C2CCCO2)cc1` (centres unmarked), for which the “% Inhibition @ 10 uM” value is reported as -4.15%. As for `COc1cc(C)c(CNCc2ccc(OC)c(OC)c2)cc1C`, the figure is -5.4%. As for `Cc1cc(OCC(=O)N2CCCCCC2)cc(C)c1Cl`, the figure is -2.18%; as for `Cc1ccc(C)c(S(=O)(=O)NCc2ccc(C(=O)O)cc2)c1`, 0.214%. `Cc1cccc(-c2nc(SCC(C)C)n[nH]2)c1`: the “% Inhibition @ 10 uM” value is recorded as -0.99%. For `CCOc1ccc(C2C3C(=NN2C(C)=O)C2CCN3CC2)cc1` (centres unmarked) the value was 3.24%. Consider `Cc1ccc(N(C)C(=O)c2cnn(-c3ccccc3)c2C)c(C)c1`, for which the “% Inhibition @ 10 uM” value is recorded as -3.43%.

As for `Fc1ccc(NCc2[nH]nnc2-c2ccccc2)cc1`, the “% Inhibition @ 10 uM” value is reported as -3.85%. For `COc1ccccc1CNC(=O)c1ccc(Br)cc1` the value was -0.636%; for `O=C(COc1ccccc1)N1CCN(C(=O)COc2ccc(Cl)cc2)CC1`, 1.26%; for `Cc1ccc(C(=O)NCC(C)NC(=O)c2ccc(C)c(C)c2)cc1C` (centres unmarked), 1.08%.

`CCN(CC)C(=O)C1C=C(c2ccccc2)C=CN=C1N(CC)CC` (centres unmarked): the “% Inhibition @ 10 uM” value worked out at 0.605%.

On to `O=C(O)/C=C\C(=O)Nc1ccccc1C#Cc1ccccc1`, for which the “% Inhibition @ 10 uM” value was -2.28%. For `Cc1c(C(=O)NC2CCS(=O)(=O)C2)oc2ccccc12` (centres unmarked) the value was -5.54%; for `Cc1ccccc1S(=O)(=O)Cc1ccc(C(=O)N2CCN(Cc3ccc4c(c3)OCO4)CC2)o1`, -8.42%; for `Cc1c(CNCc2ccc(OC(C)C)cc2)c(C(=O)O)c(C)n1Cc1ccccc1`, -7.28%. As for `CC(=O)Nc1cc(C)nn1C(C)(C)C`, the figure is -6.62%; as for `CCOc1ccccc1C(=O)NC(C)c1ccc2c(c1)OCO2` (centres unmarked), -1.04%.
